Like-named read-outs stand apart in the source and are kept apart here. Part of at least one peptide drawing is inferred or uncertain, most often the ends. For some assays here: At least one compound was matched to its structure with a doubt left. Residues, ends and D or L forms follow the SMILES beside them. No end group written: not given here.
Experiments:
FasR = target: T1, FasR (Homo sapiens, UniProt P25445); assay: ELISA binding of peptides to FasR (association constant); details: for Ka(M^−1), Measured Association Constants (Ka) for YLGA to XLGA Substituted Peptides: ELISA, concentration range 1 nM to 1 μM, first residue varied
T1 construct: Fc (IgG Fc fusion partner); purchased R&D Systems 326-FS-050
Text: (§1) Cell Lines, Chemicals, Antibodies & Proteins. Recombinant Human Fas/TNFRSF6/Fc Chimera (cat no. 326-FS-050), Human Fas Ligand/TNFSF6 (cat. No. 126-FL), Anti-human Fas TNFRSF6 Polyclonal Antibody (cat. no. AF326) and Anti-6×Histidine Cross-Linking Ab (cat no. MAB050) were purchased from R&D Systems. Anti-human, IgM-HRP (cat. no. AP320P) was purchased from Chemicon International. Phosphate buffered saline (cat. no. P3563), sodium azide (cat. no. 71289) and 3,3′,5,5′-Tetramethylbenzidine (TMB) Liquid Substrate System for ELISA (cat. no. T0440) were purchased from Sigma-Aldrich. Cliniplate 96-well microplates w/enhanced binding (cat. no. 28298-604) were purchased from VWR. Costar, 96-well, cell culture assay plates (cat. no. 3632) were ordered from Corning Incorporated. Jurkat cells (ATCC no. CRL-1990) and L929 (ATCC no. CRL-2148) were purchased from ATCC and were propagated in RPMI 1640 medium with 2 mM L-glutamine, adjusted to contain 1.5 g/L sodium bicarbonate, 4.5 g/L glucose, 10 mM HEPES, and 1 mM sodium pyruvate, 90%; 10% fetal bovine serum. CellTiter Blue Cell Viability Assay (cat. no. TB317) was purchased from Promega.
ELISA. Peptides were dissolved in a coating buffer solution (0.05M Sodium Carbonate, 0.02% Sodium Azide, pH=9.6) at the appropriate concentrations to a final concentration of 10 μM. Dilutions were made accordingly to reach desired experimental concentrations. 100 μl aliquots of the peptide solution was added to each well and incubated for 2 hours. All incubations were carried out with shaking at T=37° C. Wells were washed by pipetting solution out of each well, adding 200 μL of washing solution (PBS-Tween; 0.5%), shaking for 15 minutes and emptying each well. Three wash cycles were carried out prior to addition of 200 μL of blocking solution (1% BSA in PBS buffer) to each well followed by incubation for 2 hours. Wells were then washed (as per above procedure) three times. Protein solutions of the appropriate concentrations (Vsolution 50 μL) were then added and incubated for 2 hours. After washing three times (as per above protocol) Fas specific antibody solution (˜1:20,000) was added to each well in 100 μL aliquots and incubated for 1 hour. After washing three times (as per above protocol) IgM-HRP solution (˜1:20,000) was added to each well in 100 μL aliquots and incubated (with shaking) for 1 hour at T=37° C. Wells were washed three times prior to the addition of ready-to-use TMD, followed by incubation for 30 minutes. 2M H2SO4 (3 drops) was added to stop colorimetric reaction and the absorption was taken at 450 nm on a Perkin-Elmer, Victor3 Model automated plate reader. Data was analyzed using standard regression fits in Excel.
Effect of Amino Acid Substitution on Binding Affinities. The binding affinity of each tetrapeptide was determined by standard ELISA with a concentration range of 1 nM to 1 μM. In the first series of peptides, alterations were made only to the tyrosine residue while retaining the final three amino acids homologous in the parent sequence (LGA).

Jurkat cells = type: cell-based, human; details: Table 8; read-out: Fas EC50
Text: as §1
Apoptosis Assay. […] Control reactions were diluted with sterile PBS buffer to final volume of 200 μL per well. Peptide solutions (in PBS buffer, pH=7.3) were added in appropriate volumes to reach the desired concentrations in each well given a total volume of 200 μL per well. Apoptosis was induced by the addition of cross-linked human FasL at a concentration of 0.5 ng/ml. Plates were then incubated under sterile conditions, with shaking in a Kendro, model Hera Cell 150 incubator at T=37° C., % CO2=5 for 3 hours. A Cell Titer Blue Cell Viability Assay kit was used (as per accompanying protocol) to determine % apoptosis in cells. Fluorescence readings (560/590 nm) were taken after 4 hours under above cited incubation conditions on a Perkin-Elmer, Victor3 Model automated plate reader. Data was analyzed using standard regression fits in Excel.
Correlating the In-vitro Binding Assays with Cellular Activity. FasL activated apoptosis is known to occur by binding of the ligand to the receptor thereby initiating a series of signaling events leading to caspase production and subsequent cell death. If the YLGA (SEQ ID NO:1) motif isolated in both the α-Met and FasL proteins, is indeed the primary sequence responsible for binding to FasR then at a given concentration, peptides of sufficient Ka values should preferably bind to the receptor. This in turn would block the binding site from FasL and inhibiting cell death in the presence of both peptide and FasL. In order to examine this possibility, Jurkat cells (known to upregulate the Fas receptor) were treated with varying concentrations of peptide and then exposed to recombinant FasL.

TNFR1 = target: T2, TNFR1 (Homo sapiens, UniProt P19438); assay: Binding of peptides to TNFR / TNFR1 (Kd); details: Table 8
T2 sequence (P19438 30-455): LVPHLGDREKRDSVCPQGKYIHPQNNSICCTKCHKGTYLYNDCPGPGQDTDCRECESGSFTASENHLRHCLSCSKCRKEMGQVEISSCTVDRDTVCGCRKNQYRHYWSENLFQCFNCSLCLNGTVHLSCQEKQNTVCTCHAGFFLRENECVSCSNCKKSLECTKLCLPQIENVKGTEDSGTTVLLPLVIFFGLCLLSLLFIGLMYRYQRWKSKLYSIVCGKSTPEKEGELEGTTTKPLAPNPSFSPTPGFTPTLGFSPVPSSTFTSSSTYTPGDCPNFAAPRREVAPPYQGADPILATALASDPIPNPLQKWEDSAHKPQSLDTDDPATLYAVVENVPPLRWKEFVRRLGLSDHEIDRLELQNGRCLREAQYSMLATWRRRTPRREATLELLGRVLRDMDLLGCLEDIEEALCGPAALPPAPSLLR

T1 sequence (P25445 with tags, fused parts or gaps limits assumed): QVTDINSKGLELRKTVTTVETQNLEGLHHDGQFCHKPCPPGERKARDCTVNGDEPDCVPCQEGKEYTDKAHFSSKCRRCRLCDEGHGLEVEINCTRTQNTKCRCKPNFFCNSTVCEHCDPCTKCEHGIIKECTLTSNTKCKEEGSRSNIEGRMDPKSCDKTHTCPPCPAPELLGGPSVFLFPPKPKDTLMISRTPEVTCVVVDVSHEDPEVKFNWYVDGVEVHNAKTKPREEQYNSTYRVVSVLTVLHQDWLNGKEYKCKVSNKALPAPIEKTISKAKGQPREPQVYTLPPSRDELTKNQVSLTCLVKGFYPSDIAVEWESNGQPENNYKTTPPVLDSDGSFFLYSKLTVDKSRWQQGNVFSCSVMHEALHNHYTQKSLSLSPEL

| Kd (FasR; Table 8, read-out: Fas Kd) [nM] | EC50 (Jurkat cells) [nM] | Kd (TNFR1) [nM] | Ka(M^−1), Measured Association Constants (Ka) for YLGA to XLGA Substituted Peptides (FasR) [M⁻¹] | Molecule | other results |
| --- | --- | --- | --- | --- | --- |
| 1.27 |  |  |  | RSSYLGA [RSSYLGA] |  |
| 1.12 | 3.05 | 4.8 |  | YLGAVF-NH2 [YLGAVF] |  |
| 0.91 | 3.16 |  |  | RSSYLGAVF-NH2 [RSSYLGAVF] |  |
|  |  |  | 1e+08 | CC(C)C[C@H](NC(=O)[C@@H](N)Cc1ccccc1)C(=O)NCC(=O)N[C@@H](C)C(N)=O [FLGA] (H-FLGA-NH2) |  |

Continued, molecule first:

| Molecule | Kd (FasR; Table 8, read-out: Fas Kd) [nM] | EC50 (Jurkat cells) [nM] | Kd (TNFR1) [nM] | Ka(M^−1), Measured Association Constants (Ka) for YLGA to XLGA Substituted Peptides (FasR) [M⁻¹] | other results |
| --- | --- | --- | --- | --- | --- |
| SYLGA-NH2 [SYLGA] | 4.14 | 5.12 | 5.13 |  |  |
| SSYLGA-NH2 [SSYLGA] | 3.76 | 5.79 | 6.54 |  |  |
| CC(C)C[C@H](NC(=O)[C@@H](N)Cc1c[nH]c2ccccc12)C(=O)NCC(=O)N[C@@H](C)C(N)=O [WLGA] (H-WLGA-NH2) |  |  |  | 8e+07 |  |
| CC(C)C[C@H](NC(=O)[C@@H](N)CO)C(=O)NCC(=O)N[C@@H](C)C(N)=O [SLGA] (H-SLGA-NH2) |  |  |  | 2e+08 | Kd (FasR; Table 5, FasR, corresponding KD values, read-out: KD): 5 nM |
| C[C@H](NC(=O)CNC(=O)[C@H](C)NC(=O)[C@@H](N)Cc1ccc(O)cc1)C(N)=O [YAGA] (H-YAGA-NH2) |  |  |  |  | higher Ka value than the parent YLGA sequence (FasR; relative to YLGA): twenty percent higher |
